This is one part of the list. Values were computed here from the reads of four pooled replicates and scatter widely.
The sequences below were run against T1, Pho4 (S. cerevisiae) (UniProt P07270) (assay: relative binding free energy (BET-seq); higher = weaker binding). Settings: reference: library average.
T1 sequence: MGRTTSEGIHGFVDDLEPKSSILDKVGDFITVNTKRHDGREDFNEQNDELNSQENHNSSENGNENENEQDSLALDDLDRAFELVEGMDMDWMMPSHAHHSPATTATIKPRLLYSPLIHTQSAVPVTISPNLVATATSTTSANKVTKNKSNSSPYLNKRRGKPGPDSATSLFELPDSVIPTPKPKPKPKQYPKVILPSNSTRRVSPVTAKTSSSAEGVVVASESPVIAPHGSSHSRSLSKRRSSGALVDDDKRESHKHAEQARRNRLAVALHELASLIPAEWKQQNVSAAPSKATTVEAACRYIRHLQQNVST

Q: How did the “relative binding free energy” value turn out when TATGCCACGTGGTAGG was run?
A: Its value is -0.14 kcal/mol.

Q: With TCGGACACGTGAAGTG as the sequence, how does the “relative binding free energy” value read?
A: The value was 0.31 kcal/mol.

Q: Which “relative binding free energy” value does the source give for GCAATCACGTGGATGT here?
A: Its value is 0.29 kcal/mol.

Q: With AGTAGCACGTGTGGGC as the sequence, how does the “relative binding free energy” value read?
A: Its value is -0.12 kcal/mol.

Q: Which “relative binding free energy” value does the source give for TCGTGCACGTGAGTGA here?
A: The value was 0.11 kcal/mol.

Q: For ACTAGCACGTGTAGGG, which “relative binding free energy” value is on record?
A: The value was -0.06 kcal/mol.

Q: For ATCGTCACGTGAAAGT, which “relative binding free energy” value is on record?
A: Its value is 0.33 kcal/mol.

Q: GGGCTCACGTGTATGT was tested. Which “relative binding free energy” value did it give?
A: Its value is 0.19 kcal/mol.

Q: For CTTGGCACGTGTTGCG, which “relative binding free energy” value is on record?
A: Its value is -0.05 kcal/mol.

Q: With ATTGGCACGTGTATGA as the sequence, how does the “relative binding free energy” value read?
A: Its value is -0.1 kcal/mol.

Q: For CCTTTCACGTGTTGGT, which “relative binding free energy” value is on record?
A: Its value is 0.29 kcal/mol.

Q: With TGGTTCACGTGGAAGC as the sequence, how does the “relative binding free energy” value read?
A: The value was 0.47 kcal/mol.

Q: How did the “relative binding free energy” value turn out when GTCGTCACGTGGGGAA was run?
A: The value was -0.14 kcal/mol.

Q: How did the “relative binding free energy” value turn out when TGTGTCACGTGAACTT was run?
A: The value was 0.21 kcal/mol.

Q: TGTGGCACGTGTGCTA was tested. Which “relative binding free energy” value did it give?
A: Its value is -0.12 kcal/mol.

Q: With GTATGCACGTGCGTGT as the sequence, how does the “relative binding free energy” value read?
A: Its value is -0.13 kcal/mol.

Q: With TAAGTCACGTGAGTTC as the sequence, how does the “relative binding free energy” value read?
A: Its value is 0.26 kcal/mol.

Q: With GAGATCACGTGTTTGG as the sequence, how does the “relative binding free energy” value read?
A: Its value is 0.03 kcal/mol.

Q: How did the “relative binding free energy” value turn out when TTATACACGTGATCGT was run?
A: The value was 0.03 kcal/mol.

Q: CTGTTCACGTGTTTGT was tested. Which “relative binding free energy” value did it give?
A: The value was 0.28 kcal/mol.

Q: With GTATTCACGTGAATAG as the sequence, how does the “relative binding free energy” value read?
A: Its value is 0.25 kcal/mol.

Q: Which “relative binding free energy” value does the source give for GTATTCACGTGCGGAG here?
A: Its value is 0.17 kcal/mol.

Q: How did the “relative binding free energy” value turn out when AAATTCACGTGGGTTC was run?
A: Its value is 0.15 kcal/mol.

Q: With GAGGTCACGTGTTAGA as the sequence, how does the “relative binding free energy” value read?
A: Its value is 0.32 kcal/mol.

Q: GCGCTCACGTGAGTGG was tested. Which “relative binding free energy” value did it give?
A: Its value is 0.36 kcal/mol.

Q: How did the “relative binding free energy” value turn out when GGAGACACGTGGGATA was run?
A: Its value is -0.06 kcal/mol.

Q: With TAGCTCACGTGGGGGC as the sequence, how does the “relative binding free energy” value read?
A: The value was 0.15 kcal/mol.

Q: With TGTAACACGTGAGAGA as the sequence, how does the “relative binding free energy” value read?
A: The value was 0.44 kcal/mol.

Q: For AAATACACGTGGGTTT, which “relative binding free energy” value is on record?
A: The value was 0.02 kcal/mol.

Q: With GGAAGCACGTGATGTA as the sequence, how does the “relative binding free energy” value read?
A: Its value is 0.02 kcal/mol.

Q: For CGGTACACGTGGATGG, which “relative binding free energy” value is on record?
A: Its value is 0.09 kcal/mol.

Q: Which “relative binding free energy” value does the source give for TAAGTCACGTGAGTAG here?
A: Its value is 0.31 kcal/mol.

Q: Which “relative binding free energy” value does the source give for CAGTGCACGTGTCGGT here?
A: Its value is 0 kcal/mol.

Q: Which “relative binding free energy” value does the source give for GGTTACACGTGAGAAT here?
A: The value was 0.43 kcal/mol.

Q: Which “relative binding free energy” value does the source give for AGATTCACGTGAGGGG here?
A: Its value is 0.42 kcal/mol.

Q: GGCTTCACGTGGGGGC was tested. Which “relative binding free energy” value did it give?
A: The value was 0.22 kcal/mol.

Q: With GGGCCCACGTGAGGGT as the sequence, how does the “relative binding free energy” value read?
A: The value was 0.12 kcal/mol.

Q: How did the “relative binding free energy” value turn out when TGAGTCACGTGGGTAC was run?
A: Its value is -0.08 kcal/mol.

Q: With TTGAGCACGTGTTTTG as the sequence, how does the “relative binding free energy” value read?
A: The value was 0 kcal/mol.

Q: How did the “relative binding free energy” value turn out when TGCTTCACGTGGAGAT was run?
A: The value was 0.44 kcal/mol.

Q: Which “relative binding free energy” value does the source give for GAGGGCACGTGCGGCT here?
A: Its value is -0.09 kcal/mol.

Q: With GTAGGCACGTGAGCGC as the sequence, how does the “relative binding free energy” value read?
A: Its value is 0.28 kcal/mol.

Q: Which “relative binding free energy” value does the source give for GACAACACGTGGTGGG here?
A: The value was -0.04 kcal/mol.

Q: For TAACTCACGTGGTCGG, which “relative binding free energy” value is on record?
A: Its value is 0.37 kcal/mol.

Q: How did the “relative binding free energy” value turn out when CGTCGCACGTGAGTTG was run?
A: The value was 0.17 kcal/mol.

Q: With TGTATCACGTGTGGGA as the sequence, how does the “relative binding free energy” value read?
A: Its value is 0.1 kcal/mol.

Q: With GGTTTCACGTGTATAA as the sequence, how does the “relative binding free energy” value read?
A: The value was 0.25 kcal/mol.

Q: Which “relative binding free energy” value does the source give for GTGTGCACGTGAACGG here?
A: Its value is 0.26 kcal/mol.

Q: AAGTACACGTGTGTGG was tested. Which “relative binding free energy” value did it give?
A: Its value is 0 kcal/mol.

Q: How did the “relative binding free energy” value turn out when CGGTGCACGTGGATGG was run?
A: Its value is -0.1 kcal/mol.

Q: Which “relative binding free energy” value does the source give for AAAGGCACGTGAGGTT here?
A: The value was 0.2 kcal/mol.

Q: For TATGACACGTGGGCTG, which “relative binding free energy” value is on record?
A: Its value is -0.27 kcal/mol.

Q: How did the “relative binding free energy” value turn out when TATGGCACGTGGCAAG was run?
A: The value was -0.12 kcal/mol.

Q: CTTGTCACGTGGGTTG was tested. Which “relative binding free energy” value did it give?
A: Its value is -0.03 kcal/mol.

Q: Which “relative binding free energy” value does the source give for GTAGACACGTGTTAGT here?
A: The value was 0.09 kcal/mol.

Q: GTTAGCACGTGTTCGG was tested. Which “relative binding free energy” value did it give?
A: The value was 0.1 kcal/mol.

Q: With GAGGACACGTGGGAAG as the sequence, how does the “relative binding free energy” value read?
A: The value was 0.06 kcal/mol.

Q: TCATGCACGTGGCTGT was tested. Which “relative binding free energy” value did it give?
A: Its value is -0.03 kcal/mol.

Q: How did the “relative binding free energy” value turn out when ATCGGCACGTGGCTAG was run?
A: The value was -0.07 kcal/mol.

Q: AAGATCACGTGTGTCG was tested. Which “relative binding free energy” value did it give?
A: The value was 0.21 kcal/mol.

Q: Which “relative binding free energy” value does the source give for TTTGGCACGTGAGCTT here?
A: Its value is 0.04 kcal/mol.

Q: For GGAGGCACGTGGTTCA, which “relative binding free energy” value is on record?
A: The value was 0.01 kcal/mol.

Q: For TTCTCCACGTGTGTGT, which “relative binding free energy” value is on record?
A: Its value is -0.01 kcal/mol.

Q: With GTACACACGTGTAGGG as the sequence, how does the “relative binding free energy” value read?
A: Its value is 0.04 kcal/mol.

Q: How did the “relative binding free energy” value turn out when GGCGTCACGTGGTTAG was run?
A: The value was 0.12 kcal/mol.

Q: How did the “relative binding free energy” value turn out when GTGGTCACGTGTAGGA was run?
A: Its value is 0.11 kcal/mol.

Q: For CTGTGCACGTGGTTAA, which “relative binding free energy” value is on record?
A: The value was 0.06 kcal/mol.

Q: With TCGATCACGTGGGGCT as the sequence, how does the “relative binding free energy” value read?
A: Its value is 0.15 kcal/mol.

Q: With TTTATCACGTGCTGGT as the sequence, how does the “relative binding free energy” value read?
A: Its value is 0.16 kcal/mol.

Q: TTAGACACGTGTTTAG was tested. Which “relative binding free energy” value did it give?
A: The value was -0.04 kcal/mol.

Q: With GCGGGCACGTGTAGAT as the sequence, how does the “relative binding free energy” value read?
A: Its value is 0.37 kcal/mol.

Q: With GTCTGCACGTGAGGAA as the sequence, how does the “relative binding free energy” value read?
A: Its value is 0.43 kcal/mol.

Q: TGATGCACGTGTTTGA was tested. Which “relative binding free energy” value did it give?
A: Its value is -0.05 kcal/mol.

From the BET-seq Pho4 binding data (Le et al. 2018)
